This is one part of the list.
Experiments:
[1] = system: HSkMC (human skeletal muscle cells); assay: cytotoxicity call (relative viability < 0.9); details: 10 µM
[2] = system: HepG2; assay: cytotoxicity call (relative viability < 0.9); details: 10 µM
[3] = system: S. aureus RN4220; assay: growth inhibition call (relative growth <= 0.2); details: 50 µM

SMILES	cytotoxicity call [1]	cytotoxicity call [2]	growth inhibition call [3]
Cc1cccc(S(=O)(=O)N2C[C@H](O)COC[C@@H]3O[C@@H](CC(=O)N4CCN(C)CC4)CC[C@H]32)c1	inactive	inactive	inactive
COc1ccc(C#Cc2ccc3c(c2)[C@]2(C(=O)N3)[C@H](c3ccc(O)cc3)N3[C@H](c4ccccc4)[C@H](c4ccccc4)OC(=O)[C@H]3[C@@H]2C(=O)N2CCc3cc(OC)c(OC)cc3C2)cc1	inactive	inactive	inactive
N#C[C@@H]1C[C@@H]2C[C@@H]2N1C(=O)[C@@H](N)[C@@]12C[C@@H]3C[C@@H](C[C@@](O)(C3)C1)C2	inactive	inactive	inactive
NCC[C@H]1CC[C@H](NC(=O)C2CCC2)[C@@H](CO)O1	inactive	inactive	inactive
C[C@@H]1CN([C@H](C)CO)C(=O)c2cc(NS(C)(=O)=O)ccc2O[C@@H](C)CCCCO[C@@H]1CN(C)C(=O)c1ccncc1	inactive	inactive	inactive
CCCC#Cc1cnc2c(c1)C(=O)N([C@@H](C)CO)C[C@H](C)[C@H](CN(C)S(=O)(=O)c1cccc(OC)c1)O2	inactive	inactive	inactive
C[C@H](CO)N1C[C@H](C)[C@H](CN(C)S(=O)(=O)c2cn(C)cn2)Oc2ccc(NC(=O)C3CCCCC3)cc2C1=O	inactive	inactive	inactive
C[C@H](CO)N1C[C@H](C)[C@H](CN(C)C(=O)Nc2ccc(N3CCCCC3)cc2)OCc2cnnn2CCCC1=O	inactive	inactive	inactive
CC(C)NC(=O)N(C)C[C@@H]1Oc2c(NC(=O)Nc3ccc4c(c3)OCO4)cccc2C(=O)N([C@@H](C)CO)C[C@@H]1C	inactive	inactive	inactive
COc1ccc(CN(C)C[C@@H]2OCCCC[C@@H](C)Oc3ccc(NC(=O)C4CCCCC4)cc3C(=O)N([C@@H](C)CO)C[C@@H]2C)cc1	inactive	inactive	inactive
C[C@@H]1CN([C@H](C)CO)C(=O)Cc2cc(NS(=O)(=O)c3cccs3)ccc2O[C@H]1CN(C)Cc1ccc(-c2ccccc2)cc1	inactive	inactive	inactive
Cc1cccc(S(=O)(=O)N2C[C@H](O)COC[C@H]3O[C@H](CC(=O)NCc4ccncn4)CC[C@@H]32)c1	inactive	inactive	inactive
CCCCNc1ccccc1	inactive	inactive	inactive
O=C1/C(=C/c2cccs2)CCC/C1=C\c1cccs1	inactive	inactive	inactive
Oc1ccc(Cl)c2cccnc12	inactive	active	inactive
COc1ccc(CNC(=O)N(C)C[C@@H]2OCc3ccccc3-c3c(n(C)c4ccccc34)C(=O)N([C@H](C)CO)C[C@H]2C)cc1	inactive	inactive	inactive
CCCC#Cc1ccc2c(c1)O[C@H](CN(C)Cc1ccc3c(c1)OCO3)[C@@H](C)CN([C@H](C)CO)S2(=O)=O	inactive	inactive	inactive
Cc1cccc(S(=O)(=O)N2C[C@@H](O)COC[C@@H]3O[C@@H](CC(=O)N4CCN(C)CC4)CC[C@H]32)c1	inactive	inactive	inactive
CC(C)(C)C(=O)OCOP(=O)(COCCn1cnc2c(N)ncnc21)OCOC(=O)C(C)(C)C	inactive	active	inactive

SMILES	cytotoxicity call [1]	cytotoxicity call [2]	growth inhibition call [3]
C[C@@H]1CCCCO[C@H](CN(C)Cc2ccc(Cl)c(Cl)c2)[C@@H](C)CN([C@H](C)CO)C(=O)c2cc(NC(=O)c3ccccc3)ccc2O1	inactive	inactive	inactive
C=CCOC(=O)[C@H]1[C@@H]2C(=O)O[C@@H](c3ccccc3)[C@@H](c3ccccc3)N2[C@@H](c2ccc(OCCOC(=O)[C@H]3C[C@H]4C(=O)N[C@@H](CCCC[N+](C)(C)C)C(=O)N4[C@H]3c3cccc(OCCO)c3)cc2)[C@]12C(=O)Nc1ccccc12	inactive	inactive	inactive
C[C@H](CO)N1C[C@H](C)[C@H](CN(C)S(=O)(=O)c2ccc(Cl)cc2)Oc2ccc(N(C)C)cc2CC1=O	inactive	active	inactive
O=C(NCCN1CCOCC1)[C@@]1(CCS(=O)(=O)c2ccccc2)COC(c2ccc(OCCCO)cc2)=N1	inactive	inactive	inactive
CO[C@@H]1CN(C)C(=O)c2ccc(NS(=O)(=O)CC(F)(F)F)cc2OC[C@@H](C)N(C(=O)NC(C)C)C[C@H]1C	inactive	inactive	inactive
C[C@@H]1CN([C@H](C)CO)C(=O)c2cc(NC(=O)Nc3ccccc3)ccc2O[C@@H](C)CCCCO[C@H]1CN(C)Cc1ccncc1	inactive	inactive	inactive
COC1=C(OC)C(=O)C(C/C=C(\C)CC/C=C(\C)CC/C=C(\C)CC/C=C(\C)CC/C=C(\C)CC/C=C(\C)CC/C=C(\C)CC/C=C(\C)CC/C=C(\C)CCC=C(C)C)=C(C)C1=O	inactive	inactive	inactive
C#CCOc1cccc2c1CCNC2=O	inactive	inactive	inactive
C[C@@H]1CN([C@H](C)CO)C(=O)CCCn2cc(nn2)CO[C@@H]1CN(C)C(=O)Nc1cccc(Oc2ccccn2)c1	inactive	inactive	inactive
C[C@H]1CN([C@@H](C)CO)C(=O)Cc2cc(NC(=O)Nc3cccc4ccccc34)ccc2O[C@H]1CN(C)CC1CCCCC1	active	active	inactive
CN[C@H]1CCS(=O)(=O)C1	inactive	inactive	inactive
C[C@@H]1CN([C@H](C)CO)C(=O)c2cc(C#Cc3ccccc3F)cnc2O[C@@H]1CN(C)C(=O)c1ccc2c(c1)OCO2	inactive	inactive	inactive
C=CCOC(=O)C1=C[C@@H](c2cn(C(C)=O)c3ccccc23)C[C@@H](OCc2ccc(COC(=O)NCCCCCC(=O)NO)cc2)O1	inactive	inactive	inactive
CCC(=O)NCCN1CCN(C(=O)CC)CC1	inactive	inactive	inactive
C[C@H](CO)N1C[C@H](C)[C@H](CN(C)C(=O)Nc2ccc3c(c2)OCO3)Oc2c(NC(=O)C3CCOCC3)cccc2C1=O	inactive	inactive	inactive
C[C@H](CO)N1C[C@H](C)[C@H](CN(C)C(=O)Nc2ccccc2)Oc2c(NC(=O)c3ccc(-c4nccs4)cc3)cccc2C1=O	inactive	inactive	inactive
O=C(C[C@@H]1CC[C@H]2[C@@H](COC[C@@H](O)CN2S(=O)(=O)c2ccccc2F)O1)NCc1ccccc1F	inactive	inactive	inactive
CC(C)NC(=O)N(C)C[C@@H]1Oc2ccc(NC(=O)c3ccncc3)cc2CC(=O)N([C@@H](C)CO)C[C@H]1C	inactive	inactive	inactive
C[C@@H]1CN([C@H](C)CO)C(=O)Cc2cc(NC(=O)CCCCCC(=O)Nc3ccccc3N)ccc2O[C@H]1CN(C)C(=O)Nc1ccc(F)cc1	inactive	inactive	inactive

SMILES	cytotoxicity call [1]	cytotoxicity call [2]	growth inhibition call [3]
COc1ccccc1-c1ccc2c(c1)O[C@H](CN(C)S(=O)(=O)c1ccccc1)[C@H](C)CN([C@H](C)CO)S2(=O)=O	inactive	inactive	inactive
COc1ccc(S(=O)(=O)N[C@@H]2CC[C@@H](CC(=O)N3CCN(c4ccccc4)CC3)O[C@H]2CO)cc1	inactive	inactive	inactive
CC1=CC(=O)C(C(C)C)=CC1=O	inactive	inactive	inactive
C[C@H](CO)N1C[C@H](C)[C@H](CN(C)Cc2ccc(Cl)c(Cl)c2)Oc2c(NC(=O)c3nc4ccccc4s3)cccc2C1=O	inactive	inactive	inactive
CC(=O)OCCc1nc(C(=O)NCc2ccc3c(c2)OCO3)cc2c1[C@@H](CCO)N([S@](=O)C(C)(C)C)C2	inactive	inactive	inactive
C[C@@H]1CCCCO[C@@H](CN(C)C(=O)C2CCCCC2)[C@@H](C)CN([C@H](C)CO)C(=O)c2cc(NC(=O)CCC(F)(F)F)ccc2O1	inactive	inactive	inactive
C[C@H](CO)N1C[C@H](C)[C@H](CN(C)S(=O)(=O)c2cn(C)cn2)Oc2ccc(NC(=O)Cc3ccccc3)cc2C1=O	inactive	inactive	inactive
CCCCCCCCCCCCCCCCC(C(=O)O)C(O)(CC(=O)O)C(=O)O (stereo not drawn)	inactive	inactive	inactive
C[C@H](CO)N1C[C@H](C)[C@@H](CN(C)C(=O)C2CCOCC2)Oc2ncc(C#Cc3ccccc3F)cc2C1=O	inactive	inactive	inactive
CCCCc1cn(C[C@@H]2CCCN2C(=O)N[C@H](CO)CCc2oc(C(C)=O)c(C(=O)OC)c2C(=O)OC)nn1	inactive	inactive	inactive
c1ccc(-c2ccc(C(c3ccccc3)n3ccnc3)cc2)cc1 (stereo not drawn)	inactive	inactive	inactive
C[C@@H]1CN([C@H](C)CO)C(=O)c2cc(NC(=O)Nc3ccc(F)cc3)ccc2O[C@@H](C)CCCCO[C@@H]1CN(C)C(=O)c1ccccc1	inactive	inactive	inactive
Cc1noc(C)c1S(=O)(=O)Nc1ccc2c(c1)C(=O)N([C@@H](C)CO)C[C@H](C)[C@@H](CN(C)Cc1ccc3c(c1)OCO3)O2	inactive	inactive	inactive
C[C@H]1CN([C@@H](C)CO)S(=O)(=O)c2ccc(-c3ccncc3)cc2O[C@@H]1CN(C)S(=O)(=O)c1ccccc1F	inactive	inactive	inactive
CCCCCCc1nc(CCCc2cc3c(c(CCCCCC)n2)[Si](C(C)C)(C(C)C)O[C@H]3c2ccccc2)cc2c1[Si](C(C)C)(C(C)C)O[C@H]2c1ccccc1	inactive	inactive	inactive
C[C@H](CO)N1C[C@H](C)[C@@H](CN(C)S(=O)(=O)c2ccc(F)cc2)Oc2ccc(NS(=O)(=O)c3cccs3)cc2C1=O	inactive	inactive	inactive
CC(=O)O[C@H]1C[C@@]2(C)[C@@H](C[C@@H](O)[C@@H]3[C@@]4(C)CC[C@@H](O)[C@@H](C)[C@@H]4CC[C@@]32C)/C1=C(/CCC=C(C)C)C(=O)O	inactive	inactive	active
CCCNC(=O)c1cc2c(c(-c3cccc(-c4cc5ccccc5o4)c3)n1)[C@@H](CCO)N(C(=O)NC(C)C)C2	inactive	inactive	inactive

Reference: the antibiotic and cytotoxicity screens of Wong et al. (2023)
